Reference: PubChem BioAssay AID686979 (National Center for Advancing Translational Sciences (NCATS), 2013)
Hit rate of the full screen: of about 420,000 compounds, about 50,000 (12%) were called active. Inconclusive results, whose numbers are uncertain, are shown with a selection of clear calls. Calls come from the whole dose curve; as a rule, active = well fitted inhibition curve with a large enough effect; inconclusive = small, poorly fitted or top-dose-only effect; inactive = flat fitted curve, though single readings scatter. Potencies of inconclusive entries are left out as doubtful fits.

Test: qHTS for Inhibitors of human tyrosyl-DNA phosphodiesterase 1 (TDP1): qHTS in cells in presence of CPT; note: nearly all actives have a fitted effect of over 55% in size
Conditions: chicken DT40 Tdp1-/-;hTDP1 cells + 20 nM CPT, ATP luminescence, 48 h; activity change, negative = growth inhibition: at 46.2 µM (top of the series)
Method in brief: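 Chicken DT40 Tdp1-/- cells stably complemented with human TDP1 were seeded at 400 cells/well in medium containing 20 nM camptothecin, exposed to pin-transferred compounds, and grown at 37 °C for at least 48 hr. Viability was read as ATP luminescence.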
% is set by controls: 0 for no effect and ±100 for the full control effect; potency is the fitted concentration of half-maximal effect; tags give direction and shape of the fitted curve.

SMILES	Potency	activity change, negative = growth inhibition
O=C(C1=C[C@H](c2ccc(C(F)(F)F)cc2)C[C@H](OCc2ccc(CO)cc2)O1)N1CCCCCCC1	inconclusive [inhibitor, single point]	–
Cc1ccccc1-c1nc(CN2CCC(C(=O)NCCc3ccccc3)CC2)c(C)o1	active: 14.6 µM	–
CCCN(CCC)S(=O)(=O)c1ccc2c(c1)N(CC(=O)NCc1ccc(F)cc1Cl)C(=O)CS2	inconclusive [inhibitor, single point]	–
OCC1(Cc2ccccc2)CCCN(Cc2cnn(-c3ccccc3)c2)C1 (centres undefined)	–	inconclusive: -34.6% [inhibitor]
O=C(COCc1cc(-c2ccc(F)cc2)on1)Nc1cccc(Cl)c1Cl	inconclusive [inhibitor, partial curve]	–
O=C(/C=C/c1ccc(OC2CSC2)cc1)c1ccc(Cl)cc1	inconclusive [inhibitor, single point]	–
CC(OC(=O)c1c2c(nc3ccccc13)/C(=C\c1ccc3c(c1)OCO3)CCC2)C(=O)Nc1ccc(S(N)(=O)=O)cc1 (centres undefined)	inconclusive [inhibitor, partial curve]	–
O=C(c1cccc(-n2cccc2)c1)N1CCN(S(=O)(=O)c2ccc(F)cc2)CC1	inactive	–
O=C(COC(=O)C1(c2cccc(F)c2)CCCC1)NCc1cccs1	inactive	–
CCCCCc1c(O)c2ccccc2[nH]c1=O	inactive	–
Cc1ccc(NC(=O)c2ccccc2NS(=O)(=O)c2ccc(Cl)s2)cc1S(=O)(=O)N1CCOCC1	active: 13 µM	–
CC(C)(C)C(=O)N1CCN(S(=O)(=O)c2ccc3c(c2)OCCCO3)CC1	inconclusive [inhibitor, partial curve]	–
Fc1ccc(-n2c(Cc3ccccc3)nnc2SCc2nc(-c3ccc(Cl)cc3)no2)cc1	active: 13 µM	–
CCOc1ccc(C(C)=O)cc1COC(=O)c1cnc(Cl)c(Cl)c1	inconclusive [inhibitor, single point]	–
CC1(C(=O)NCc2cccc(C(F)(F)F)c2)CCN1Cc1ccc2ccccc2c1 (centres undefined)	inconclusive [inhibitor, single point]	–
COc1ccc(CCNC(=O)C2CCCN(S(=O)(=O)c3ccc(F)cc3)C2)cc1OC (centres undefined)	inconclusive [inhibitor, single point]	–
CC1(C)CC(=O)c2c(O)cc(OCC(=O)N3CCN(c4ccc(F)cc4)CC3)cc2O1	inconclusive [inhibitor, single point]	–
Cc1cc(NC(=O)CCC(=O)N(Cc2ccco2)C2(C(=O)NC3CCCCC3)CCCCC2)no1	inconclusive [inhibitor, single point]	–
O=C(NCc1cccn1Cc1ccccc1)Nc1ccc(Br)cc1F	inconclusive [inhibitor, single point]	–
O=C(NCCc1ccccc1)c1cccc(NC(=O)c2ccccc2)c1	inconclusive [inhibitor, single point]	–
O=C(NCc1ccc(Cl)cc1)c1ccc(-c2ccccc2C(F)(F)F)o1	active: 20.6 µM	–
N#CCCn1cc(C=O)c(-c2cccs2)n1	inconclusive [inhibitor, single point]	–

SMILES	Potency	activity change, negative = growth inhibition
CCN(CC(=O)Nc1ccccc1C(F)(F)F)C(=O)CCS(=O)(=O)c1ccc(Cl)cc1	inconclusive [inhibitor, single point]	–
O=C(c1cccc(N2CCCC2=O)c1)N1CCN(c2cccc(Cl)c2)CC1	inconclusive [inhibitor, full curve, poor fit]	–
COc1cc(C(=O)OCCCN(C)C)cc(OC)c1OC	inactive	–
COC(=O)c1ccc(NC(=S)Nc2cccc(C)n2)cc1	inconclusive [inhibitor, single point]	–
COc1ccc(OC2C(=O)N(Cc3ccc4c(c3)OCO4)C2c2sccc2C)cc1 (centres undefined)	inconclusive [inhibitor, single point]	–
Cc1ccc(S(=O)(=O)c2nnn3c2nc(NC(C)c2ccccc2)c2sccc23)cc1 (centres undefined)	inconclusive [inhibitor, single point]	–
CCCCc1nn(-c2cc(Cl)ccc2OC)c2c1C(=O)CC(C)(C)C2	active: 11.6 µM	–
CCC1CCCCN1C(=O)CSc1nnc(-c2cccc(Cl)c2)o1 (centres undefined)	active: 25.9 µM	–
CCCc1nc(SC2CCCC2)c2c(=O)n(C)c(=O)n(C)c2n1	active: 23.1 µM	–
CC(=O)Nc1cccc(-c2ccnc3c2CC(C)(C(=O)Nc2ccc(F)c(Cl)c2)O3)c1 (centres undefined)	inconclusive [inhibitor, single point]	–
O=C(COC(=O)c1ccccc1OCCOc1ccccc1)Nc1ccc(Br)cc1	inactive	–
Cc1cccc2c1-c1sc(C(=O)Nc3cccc([N+](=O)[O-])c3C)cc1CO2	inconclusive [inhibitor, partial curve, poor fit]	–
O=C(CN1C(=O)c2cccc3cccc1c23)N1CCc2ccccc2C1	active: 20.6 µM	–
COC(=O)c1c(NC(=O)CN(c2ccccc2)S(C)(=O)=O)sc2c1CCCC2	inconclusive [inhibitor, single point]	–
CC(=O)c1cn(CCOc2cc(C)ccc2C)c2ccccc12	active: 3.66 µM	–
CCCCOc1ccc(/C=N/Nc2cc(N3CCOCC3)nc(C)n2)cc1	active: 18.4 µM	–
COc1ccc(C(=O)Nc2ccc(N3CCN(C)CC3)cc2)cc1[N+](=O)[O-]	inactive	–
Cc1ccc(Cl)cc1NC(=O)Nc1nnc(N2CCCC(C)C2)s1 (centres undefined)	inactive	–
CCn1c(SC/C=C/c2ccccc2)nnc1-c1cccs1	inconclusive [inhibitor, partial curve]	–
O=C(c1csnn1)N1CCC2(CC1)CCN(c1cccc(-c3ccccc3)c1)CC2	inconclusive [inhibitor, single point]	–
COc1cc(Cl)c(C)cc1NC(=O)[C@@H]1CCCN1C(=O)c1cccs1	inconclusive [inhibitor, single point]	–
COc1ccccc1N1CCN(C(=O)c2ccc(C(C)(C)C)cc2)CC1	active: 4.61 µM	–
